Test results published in PubChem BioAssay AID488969 (Vanderbilt High Throughput Screening Facility, 2010).
Whole data set: some 110,000 compounds, median “z-score” near -0.1, cut for the highest 2% near 2. The list shows a part of the results.

target: Metabotropic glutamate receptor 8 (Rattus norvegicus) (UniProt P70579); experiment: mGluR8 Gi/Go-coupled signaling modulation – cell-based, rat, thallium flux, HTS, primary screen (AID 488969); conditions: HEK293 rat mGluR8, GIRK (G protein-gated inwardly rectifying potassium channel) thallium flux, FluoZin2; at 10 µM; stronger effect = higher value; submaximal glutamate (EC20) added with thallium
Sequence of UniProt P70579 (P70579 whole entry, looked up): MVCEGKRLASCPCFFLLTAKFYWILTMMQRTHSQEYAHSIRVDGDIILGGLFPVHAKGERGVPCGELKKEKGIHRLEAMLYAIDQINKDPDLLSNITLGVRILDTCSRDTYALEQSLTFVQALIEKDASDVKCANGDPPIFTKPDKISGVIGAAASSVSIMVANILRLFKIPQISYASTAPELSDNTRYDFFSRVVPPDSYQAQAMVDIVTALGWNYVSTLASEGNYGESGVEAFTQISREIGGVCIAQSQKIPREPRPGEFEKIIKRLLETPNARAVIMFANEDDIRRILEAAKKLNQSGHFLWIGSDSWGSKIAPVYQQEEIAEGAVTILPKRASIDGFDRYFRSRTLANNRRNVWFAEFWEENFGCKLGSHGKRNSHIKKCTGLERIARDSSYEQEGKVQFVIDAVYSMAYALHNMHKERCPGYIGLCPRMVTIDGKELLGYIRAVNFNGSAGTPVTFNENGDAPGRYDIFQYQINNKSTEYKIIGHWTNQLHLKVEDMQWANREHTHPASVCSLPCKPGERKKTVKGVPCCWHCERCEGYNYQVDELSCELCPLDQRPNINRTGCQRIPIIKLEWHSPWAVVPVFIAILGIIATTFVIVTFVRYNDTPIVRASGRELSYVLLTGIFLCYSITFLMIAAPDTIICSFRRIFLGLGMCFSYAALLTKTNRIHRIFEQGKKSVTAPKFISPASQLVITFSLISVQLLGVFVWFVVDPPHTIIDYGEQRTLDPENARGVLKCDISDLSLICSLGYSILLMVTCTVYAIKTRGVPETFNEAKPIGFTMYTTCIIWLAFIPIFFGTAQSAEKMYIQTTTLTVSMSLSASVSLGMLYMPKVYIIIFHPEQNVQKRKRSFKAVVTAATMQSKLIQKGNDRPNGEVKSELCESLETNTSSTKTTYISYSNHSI

Row | SMILES | z-score
1 | O=C(CSc1nnnn1-c1ccccc1)NCc1cccs1 | 0.182
2 | Cc1ccc(S(=O)(=O)N(CC(=O)Nc2ccccc2-c2ccccc2)c2ccc(C)cc2C)cc1 | 0.238
3 | Cc1c(/C(O)=C2\C(=O)C(=O)N(CCN(C)C)C2c2cccnc2)cnn1-c1ccccc1 (stereo unspecified) | 0.102
4 | COC(=O)c1ccccc1S(=O)(=O)N1CCC(c2nc3ccccc3o2)CC1 | -0.675
5 | COCc1[nH][nH]c(=O)c1C=Nc1ccc(Cl)cc1 | -0.108
6 | C[C@H](NS(=O)(=O)c1ccccc1F)C(=O)OCC(=O)N1CCc2ccccc21 | -0.253
7 | Nc1nc(SCc2nc3scc(-c4cccs4)c3c(=O)[nH]2)n[nH]1 | -0.437
8 | CCOc1ccccc1C1NC(=O)NC(C)=C1C(=O)OC1CCCCC1 (stereo unspecified) | -0.569
9 | CCc1ccc(-c2nc(CN3CCCC(C(=O)NCCc4ccc(OC)c(OC)c4)C3)c(C)o2)cc1 (stereo unspecified) | 2.2
10 | CCOc1ccccc1C(=O)OCC(=O)Nc1ncc(C(F)(F)F)cc1Cl | -0.0395
11 | CCOC(=O)c1cn(-c2ccc(F)c(F)c2)c2c(F)c(F)c(F)c(F)c2c1=O | 0.827
12 | COc1ccc(S(=O)(=O)Nc2cc(C(=O)NC3CCCCCC3)ccc2N2CCOCC2)cc1 | -0.0198
13 | Cc1ccc(C)c(Cn2c(=O)n(-c3ccc(CC(=O)NCc4ccco4)cc3)c(=O)c3sccc32)c1 | -0.162
14 | Cc1cc(NC(=O)Nc2cccc(C(F)(F)F)c2)no1 | -0.232
15 | COc1ccccc1-c1c(C#N)c(SCC(=O)N2CCCC2)nc(C)c1C(N)=O | 0.169
16 | c1cncc(C(c2nnnn2C2CCCCC2)N2CCN3CCCC3C2)c1 (stereo unspecified) | -0.106
17 | CN(c1cccc(Cl)c1)S(=O)(=O)c1cccc(C(=O)NC2=NCCS2)c1 | -0.0496
18 | COc1cccc(CNC(=O)C2CCN(Cc3cnn(-c4ccccc4)c3-n3cccc3)CC2)c1 | 2.66
19 | CCOc1ccc(S(=O)(=O)Nc2ccc(S(=O)(=O)N3CCCC3)cc2)cc1 | -0.00586
20 | O=C(N/N=C\c1ccccn1)C1COc2cc3ccccc3cc2O1 (stereo unspecified) | 1.5
21 | CC(=O)N1N=C(c2ccccc2O)OC1(C)CC(=O)Nc1ccccc1 (stereo unspecified) | -0.135
22 | CS(=O)(=O)c1nc(-c2ccco2)cc(C(F)(F)F)n1 | -0.814
23 | CCCC(=O)N1CCN(c2ccc(NC(=O)c3ccc(OCC)c([N+](=O)[O-])c3)cc2)CC1 | 0.047

Row | SMILES | z-score
24 | N/C(=N\c1nc2c(c(=O)[nH]1)CCC2)Nc1cccc(Cl)c1 | -0.145
25 | CCOCCCNC(=O)c1cc(Sc2ccc(F)cc2)nc2ccccc12 | -0.917
26 | CC(=O)Nc1ccc2c(c1)OCCO2 | 0.347
27 | O=C(OCCN1CCCC1=O)c1cncc(Br)c1 | 0.0878
28 | NC(=O)c1sc2nc(N3CCOCC3)c3c(c2c1N)CCCC3 | 0.0122
29 | O=C(NC1CCCC1)C(c1ccncc1)N(Cc1cccs1)C(=O)c1csnn1 (stereo unspecified) | 0.532
30 | Cc1ccc(S(=O)(=O)NCC(=O)OCC(=O)Nc2ncc(Cl)cc2Cl)cc1 | -1.17
31 | O=C(Nc1ccccc1[N+](=O)[O-])C1=C(O)CCn2c1nc1ccccc12 | -0.237
32 | O=C(/C=C/c1ccccc1)NC(=S)Nc1ccc(CN2CCOCC2)cc1 | 0.0788
33 | Cc1ccc(C(=O)O/N=C2\CC3CCC2(C)C3(C)C)cc1 (stereo unspecified) | 0.262
34 | COc1ccc(C(C#N)Nc2ccccc2C)cc1 (stereo unspecified) | -0.219
35 | CCCN1C(=O)C(O)(C/C(C)=N/O)c2ccccc21 (stereo unspecified) | 0.162
36 | CCc1nc(-c2ccc(C)nc2OC)no1 | 0.176
37 | O=C(CSc1ncn[nH]1)Nc1ccc2c(c1)CCC2 | -0.0751
38 | CC(=O)c1c(C)[nH]c(C(=O)Nc2cccnc2)c1C | 0.0832
39 | COc1ccc(NC(=O)Cn2c(=O)sc3ccccc32)cc1 | -0.492
40 | O=C(CC(c1ccccc1)c1ccccc1)NCCO | -1.11
41 | COc1ccc(/C=C/C(=O)c2sc(-c3ccc(Cl)cc3)nc2C)cc1 | -0.978
42 | C=CCN1C(=O)C(CCCC)NC1=S (stereo unspecified) | -0.0406
43 | Fc1ccc(-c2ccnc3nc(N4CCN(c5ccccc5)CC4)nn23)cc1 | -0.597
44 | CC(C)Cc1nc2oc3c(=O)[nH]cnc3c2c2c1CCC2 | 0.0516
45 | C=CCNc1nc(N2CCOCC2)c(C#N)c2c1CN(C)CC2 | -0.148
46 | CC(C)C(=O)NCCn1ccc2ccccc21 | 0.586

Row | SMILES | z-score
47 | COc1cc(C2C(C(=O)c3cccs3)=C(O)C(=O)N2c2cc(C)on2)ccc1O (stereo unspecified) | -0.347
48 | CCN(CC)C(=O)C1=C(C)Nc2nnnn2C1c1cccnc1 (stereo unspecified) | -0.00299
49 | Cc1ccc(-n2c(O)c(/C=N/NC(=O)C3COc4ccccc4O3)c3ccccc3c2=O)cc1 (stereo unspecified) | -0.326
50 | Cc1ccc(C(=O)Nc2cc(=O)n(C)c(=O)n2C)o1 | -0.559
51 | Fc1ccccc1CSc1nnc(-c2cccs2)o1 | 0.949
52 | CC(=O)c1cc2c(C)c(C(=O)c3ccccc3)oc2cc1O | 0.335
53 | Cc1cccc(NC(=O)Nc2ccc(C)cc2Br)c1 | 0.0899
54 | CCSC1=N/C(=C\c2ccc(OC)cc2)C(=O)N1 | -0.286
55 | CCc1ccc(NC(=O)c2c(Cl)nc(C)c(Cl)c2C)cc1 | 0.414
56 | Cc1cccc(NC(=O)C2CC(=O)n3cnnc3S2)c1 (stereo unspecified) | -0.956
57 | CCc1ccc(OCC(=O)NNC(=O)Cc2cccs2)cc1 | 0.638
58 | N#CC1=C(SCC(=O)Nc2cccc3cccnc23)NC(=O)C(C#N)C12CCCCC2 (stereo unspecified) | -2.36
59 | NC(=O)NC(=O)CSc1cccc(C(F)(F)F)c1 | -0.362
60 | Cc1ccc(-c2cc(C(=O)NCC3CCCO3)no2)cc1 (stereo unspecified) | -0.137
61 | CCN(CC)CCN1C(=O)c2ccccc2NC1c1ccc(F)cc1 (stereo unspecified) | -0.365
62 | N#CC1C(C#N)N2CCCN2C1c1ccc(Cl)cc1 (stereo unspecified) | 0.412
63 | C/C(=N/NC(=O)CNC(=O)COc1ccccc1)c1ccco1 | 0.0764
64 | Cn1cccc1Cc1nnc(SCC(=O)N2CCCC2)n1CCc1ccccc1 | 0.601
65 | CC(=O)Oc1ccccc1C1OC(=O)c2ccccc2N1C(C)=O (stereo unspecified) | -0.00311
66 | Cc1cccc(NC(=S)NNC(=S)NCc2ccccc2)c1 | -0.364
67 | COc1ccc(/C=N\NC(=O)C2=NNC(=O)C2C)cc1 (stereo unspecified) | -0.0658
68 | Cc1c(Cc2c(Cl)cccc2Cl)c(=O)ccn1C(C)c1ccccc1 (stereo unspecified) | -0.144
69 | CN1CC2([N+](=O)[O-])CC=C(OCCO)C([N+](=O)[O-])(C1)C2 (stereo unspecified) | -0.317

Row | SMILES | z-score
70 | CN1/C(=C/C(=O)c2cccs2)Sc2ccccc21 | -0.204
71 | CC(C)Cc1nc2n[nH]c(N)c2c2c1CCC2 | 0.342
72 | CCOc1ccc(NS(=O)(=O)c2ccc3[nH]c(=O)oc3c2)cc1 | -0.219
73 | COC(=O)c1cc(NC(=O)c2c(Cl)cnn2C)cc(C(=O)OC)c1 | -0.191
74 | CS(=O)(=O)c1ccc2nc(NC3(C(F)(F)F)N=C4SCCN4C3=O)sc2c1 (stereo unspecified) | 0.151
75 | N/C(=N\OC(=O)CCC1CCCC1)c1cccc([N+](=O)[O-])c1 | -0.162
76 | COc1cc(C(=O)O/N=C(\N)c2ccc([N+](=O)[O-])cc2)cc(OC)c1OC | -0.417
77 | O=C1CCCC2=C1C1(CCCCC1)N=C(Nc1nc3ccccc3s1)N2 | -0.0713
78 | O=C(O)c1cc2ccc3ccccc3c2[nH]1 | -0.72
79 | COc1ccc(CNC(=O)c2c(N)n(CCCN3CCOCC3)c3nc4ccccc4nc23)cc1 | -0.327
80 | CCc1cc(=O)oc2cc(C)cc(OCc3nn[nH]n3)c12 | 0.133
81 | Clc1ccc(-c2ccc(SCc3ccccn3)nn2)cc1 | 0.107
82 | CC1CN(C(=S)SCC(=O)c2ccccc2)CC(C)O1 (stereo unspecified) | -0.298
83 | O=C(O)c1ccccc1N(Cc1ccccc1)C(=O)CO/N=C/c1ccccc1 | -0.232
84 | Nc1nnnn1/N=C/c1ccccc1OCc1ccc(Cl)cc1Cl | -0.252
85 | N#Cc1c(-c2ccccc2)ccnc1Oc1ccccc1 | 0.317
86 | Cc1ccc(S(=O)(=O)N[C@H](C(=O)OCn2nnc3ccccc3c2=O)C(C)C)cc1 | -0.125
87 | CSc1nc2ccc(S(=O)(=O)N3CCOCC3)cc2s1 | 0.172
88 | Cc1nc2nc(C)c(CCC(=O)NC(C)c3ccc4c(c3)OCCO4)c(C)n2n1 (stereo unspecified) | 0.0286
89 | CCOC(=O)c1cc(-c2ccccc2)sc1NC(=O)c1cc(OC)c(OC)c(OC)c1 | -0.109
90 | O=c1c([N+](=O)[O-])c(NC2CCCCC2)c2ccccc2n1-c1ccccc1 | 0.168
91 | COc1ccccc1C1CC(c2ccc(C)cc2)Nc2ncnn21 (stereo unspecified) | 0.264
92 | COc1cccc(NC(=S)NNC(=O)c2ccccc2OC(F)F)c1 | 0.361

Row | SMILES | z-score
93 | CCc1ccc(NC(=O)c2ccc(Cn3cc([N+](=O)[O-])cn3)cc2)cc1 | -0.168
94 | CC(C)(C)C(=O)NCCCc1ccccc1 | -0.0532
95 | O=C(CCC1CC(=O)Nc2ccccc21)NCc1ccc(F)cc1 (stereo unspecified) | 0.75
96 | Cc1cccc(NC(=O)CN2C(=O)NC(Cc3ccccc3)C2=O)c1 (stereo unspecified) | 0.0974
97 | COc1ccc2c(c1)c(C(=O)CN1CCN(C(=O)c3ccco3)CC1)c(C)n2C | 0.531
98 | S=C(NCCC(c1ccccc1)c1ccccc1)Nc1ccc(Cl)cc1 | -0.14
99 | CCOC(=O)C1CCN(CC(=O)Nc2c(C(=O)OC)[nH]c3cccc(C)c23)CC1 | -0.691
100 | Cc1ccc(C2N(c3nccs3)C(=O)C3CCCN32)cc1 (stereo unspecified) | -0.284
101 | CS(=O)(=O)c1cnc2c(-c3ccc(F)cc3)cnn2c1N | -0.215
102 | O=C(CN1CCN(Cc2cccc(Cl)c2)C1=O)NCC1CCCO1 (stereo unspecified) | 0.107
103 | CCOC(=O)c1cnc(-n2nc(C)cc2C)nc1NCCc1ccccc1 | -0.487
104 | Cc1ccc(S(=O)(=O)N(C)C2(C)CCS(=O)(=O)C2)cc1 (stereo unspecified) | -0.0524
105 | COCCCNC(=O)/C(C#N)=c1\s/c(=C\c2ccccc2OC(F)F)c(=O)n1CCCOC | -0.207
106 | c1ccc2c(c1)CC1(CCCCC1)n1nnnc1-2 | -1.09
107 | COc1ccc(C)cc1NC(=O)COC(=O)C1CC1 | -0.0696
108 | C=CCn1c(SCCOc2ccc(OC)cc2)nnc1C(CO)NC(=O)c1ccc(OC)cc1 (stereo unspecified) | -0.406
109 | COc1ccc(C(NC(=O)C2CCCCC2)c2c(O)ccc3ccccc23)cc1 (stereo unspecified) | 0.484
110 | O=C(CN(C(=O)c1cccc([N+](=O)[O-])c1)C1CCCCC1)Nc1ccc(Cl)c([N+](=O)[O-])c1 | -0.137
111 | CCOc1cc(/C=N/NC(N)=O)ccc1OC(=O)c1ccc(C)cc1 | -0.24
